Measured values published in paper PMC7150769.
Results are given in words; binding and its absence hold for the method and conditions named. In cells and extracts the contact can be indirect. Some results given as binding are weak or reduced against the parent protein; the word gives no strength. For part of these data: Sequences can lack the tags named with a protein.

Sequences of proteins named here, by UniProt entry; tags and fusion partners are left off. Residues count along the entry.
UniProt P16794: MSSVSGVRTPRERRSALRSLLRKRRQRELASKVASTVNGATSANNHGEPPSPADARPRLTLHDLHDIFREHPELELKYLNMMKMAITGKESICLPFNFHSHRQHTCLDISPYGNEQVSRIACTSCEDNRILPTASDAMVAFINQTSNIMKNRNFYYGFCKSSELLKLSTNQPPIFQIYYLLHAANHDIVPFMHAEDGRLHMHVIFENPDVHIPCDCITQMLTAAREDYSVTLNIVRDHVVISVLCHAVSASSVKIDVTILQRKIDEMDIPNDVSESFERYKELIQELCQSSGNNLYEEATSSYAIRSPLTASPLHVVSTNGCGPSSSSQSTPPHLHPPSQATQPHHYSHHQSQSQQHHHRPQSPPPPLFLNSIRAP
UniProt D3XDP1: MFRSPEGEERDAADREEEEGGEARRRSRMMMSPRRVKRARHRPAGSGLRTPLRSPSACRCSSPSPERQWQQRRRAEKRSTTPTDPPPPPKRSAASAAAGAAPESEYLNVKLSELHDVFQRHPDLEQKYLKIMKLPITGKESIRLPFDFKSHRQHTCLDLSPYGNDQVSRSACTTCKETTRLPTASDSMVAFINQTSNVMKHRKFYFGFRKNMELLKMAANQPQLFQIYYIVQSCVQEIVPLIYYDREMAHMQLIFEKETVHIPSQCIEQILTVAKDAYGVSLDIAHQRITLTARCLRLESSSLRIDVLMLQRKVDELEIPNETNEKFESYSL
UniProt P16791: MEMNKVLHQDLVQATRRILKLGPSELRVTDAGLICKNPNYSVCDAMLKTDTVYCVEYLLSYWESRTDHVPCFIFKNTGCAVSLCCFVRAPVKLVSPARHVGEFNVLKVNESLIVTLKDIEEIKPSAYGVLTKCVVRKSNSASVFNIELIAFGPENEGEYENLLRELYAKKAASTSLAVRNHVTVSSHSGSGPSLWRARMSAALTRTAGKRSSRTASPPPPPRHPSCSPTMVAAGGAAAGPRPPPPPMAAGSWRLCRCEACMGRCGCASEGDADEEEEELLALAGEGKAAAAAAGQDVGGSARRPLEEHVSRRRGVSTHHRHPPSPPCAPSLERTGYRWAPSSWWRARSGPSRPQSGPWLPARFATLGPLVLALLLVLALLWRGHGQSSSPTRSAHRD
UniProt D3XDN8: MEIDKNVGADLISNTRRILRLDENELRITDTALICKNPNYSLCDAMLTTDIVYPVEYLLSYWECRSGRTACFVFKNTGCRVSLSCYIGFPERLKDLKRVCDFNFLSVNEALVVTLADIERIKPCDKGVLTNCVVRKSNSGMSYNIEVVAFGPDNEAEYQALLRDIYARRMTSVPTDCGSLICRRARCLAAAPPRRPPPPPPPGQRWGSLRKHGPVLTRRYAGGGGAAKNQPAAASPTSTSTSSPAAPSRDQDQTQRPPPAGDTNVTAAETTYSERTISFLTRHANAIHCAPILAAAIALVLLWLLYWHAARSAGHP
UniProt Q4JQV1: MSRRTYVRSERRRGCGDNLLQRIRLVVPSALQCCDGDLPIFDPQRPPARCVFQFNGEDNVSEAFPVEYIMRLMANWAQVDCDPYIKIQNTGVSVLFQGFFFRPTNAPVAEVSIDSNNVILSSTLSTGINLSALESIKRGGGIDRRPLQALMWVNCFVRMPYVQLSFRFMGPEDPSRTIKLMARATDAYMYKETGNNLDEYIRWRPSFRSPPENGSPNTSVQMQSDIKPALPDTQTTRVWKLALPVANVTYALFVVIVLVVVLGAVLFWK
UniProt P16788: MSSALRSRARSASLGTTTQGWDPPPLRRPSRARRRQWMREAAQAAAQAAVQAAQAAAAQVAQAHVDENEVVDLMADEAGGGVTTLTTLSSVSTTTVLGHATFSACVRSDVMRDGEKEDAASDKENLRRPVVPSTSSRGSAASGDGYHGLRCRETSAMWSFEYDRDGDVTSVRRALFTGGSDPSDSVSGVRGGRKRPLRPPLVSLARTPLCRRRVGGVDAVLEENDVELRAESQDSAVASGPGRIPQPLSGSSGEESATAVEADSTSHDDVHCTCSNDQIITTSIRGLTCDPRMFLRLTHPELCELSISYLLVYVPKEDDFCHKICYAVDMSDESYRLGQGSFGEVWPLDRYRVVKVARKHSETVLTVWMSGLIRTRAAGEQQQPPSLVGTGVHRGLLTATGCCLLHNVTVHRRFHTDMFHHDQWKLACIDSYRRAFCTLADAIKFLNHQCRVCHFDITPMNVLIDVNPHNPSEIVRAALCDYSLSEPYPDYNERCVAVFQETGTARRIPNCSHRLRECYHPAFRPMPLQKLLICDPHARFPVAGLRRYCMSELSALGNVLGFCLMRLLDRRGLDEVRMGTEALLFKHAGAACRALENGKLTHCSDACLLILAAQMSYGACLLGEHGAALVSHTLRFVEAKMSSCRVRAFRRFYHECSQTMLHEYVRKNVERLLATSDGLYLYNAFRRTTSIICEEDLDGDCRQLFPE
UniProt Q07021, residues 74-282: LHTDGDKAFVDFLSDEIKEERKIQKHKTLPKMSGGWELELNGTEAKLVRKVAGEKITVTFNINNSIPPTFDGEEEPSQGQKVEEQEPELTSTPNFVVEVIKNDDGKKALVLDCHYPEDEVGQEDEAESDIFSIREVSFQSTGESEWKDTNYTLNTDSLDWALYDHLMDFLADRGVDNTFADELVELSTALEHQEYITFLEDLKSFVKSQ

Columns and labels:
Assay in all cases: co-IP
[1] = molecular target: HCMV pUL53, Flag-tagged (pcDNA-UL53-Flag) (human cytomegalovirus (HCMV)) (UniProt P16794)
[2] = molecular target: T1, VZV Orf27, Flag-tagged (pcDNA-Orf27-Flag) (varicella zoster virus (VZV), strain Oka) (UniProt Q4JQU8)
T1 sequence: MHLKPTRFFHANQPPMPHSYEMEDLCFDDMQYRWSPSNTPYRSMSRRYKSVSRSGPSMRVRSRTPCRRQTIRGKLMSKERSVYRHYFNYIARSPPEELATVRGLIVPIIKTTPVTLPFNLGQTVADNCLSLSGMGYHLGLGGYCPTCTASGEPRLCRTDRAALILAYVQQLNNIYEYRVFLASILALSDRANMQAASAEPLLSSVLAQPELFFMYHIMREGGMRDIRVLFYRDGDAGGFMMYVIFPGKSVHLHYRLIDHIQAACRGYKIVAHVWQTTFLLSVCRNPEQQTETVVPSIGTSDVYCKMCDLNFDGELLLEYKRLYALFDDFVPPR

[3] = molecular target: T2, EBV BFLF2, Flag-tagged (pcDNA-BFLF2-Flag) (Epstein-Barr virus (EBV), strain B95-8) (UniProt P0CK47)
T2 sequence: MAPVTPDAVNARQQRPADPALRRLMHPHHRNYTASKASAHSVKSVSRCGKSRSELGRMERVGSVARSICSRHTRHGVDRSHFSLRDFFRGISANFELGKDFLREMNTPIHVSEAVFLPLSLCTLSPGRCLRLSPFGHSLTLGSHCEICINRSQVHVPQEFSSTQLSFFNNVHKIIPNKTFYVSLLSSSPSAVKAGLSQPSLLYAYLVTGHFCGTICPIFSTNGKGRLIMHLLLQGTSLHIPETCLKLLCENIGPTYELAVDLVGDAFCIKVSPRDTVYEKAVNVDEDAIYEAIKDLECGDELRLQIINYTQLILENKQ

[4] = molecular target: MCMV pM53, Flag-tagged (pcDNA-M53-Flag) (murine cytomegalovirus (MCMV), strain Smith) (UniProt D3XDP1)
[5] = molecular target: HCMV pUL50, HA-tagged (pcDNA-UL50-HA) (human cytomegalovirus (HCMV)) (UniProt P16791)
[6] = molecular target: HCMV pUL53, HA-tagged (human cytomegalovirus (HCMV)) (UniProt P16794)
[7] = molecular target: MCMV core NEC (transiently coexpressed pM50 and pM53) (murine cytomegalovirus (MCMV), strain Smith) (UniProt D3XDN8)
[8] = molecular target: HCMV core NEC (transiently coexpressed pUL50 and pUL53) (human cytomegalovirus (HCMV)) (UniProt P16791)
[9] = molecular target: MCMV pM50, HA-tagged (pcDNA-M50-HA) (murine cytomegalovirus (MCMV), strain Smith) (UniProt D3XDN8)

HCMV pUL50, HA-tagged (pcDNA-UL50-HA) (from UniProt P16791 1-397)
binding [1]: binds
binding [2]: no binding
binding [3]: no binding

VZV Orf24, HA-tagged (pcDNA-Orf24-HA) (from UniProt Q4JQV1 1-269)
binding [1]: no binding
binding [2]: binds
binding [3]: no binding

MCMV pM50, HA-tagged (pcDNA-M50-HA) (from UniProt D3XDN8 1-316)
binding [4]: binds

MCMV pM53, Flag-tagged (pcDNA-M53-Flag) (from UniProt D3XDP1 1-332)
binding [1]: binds
binding [5]: binds
binding [6]: binds

HCMV protein kinase pUL97, Flag-tagged (from UniProt P16788 1-707) (enzyme)
binding [7]: binds
binding [8]: binds

HCMV pUL53, Flag-tagged (pcDNA-UL53-Flag) (from UniProt P16794 1-376)
binding [9]: binds

cellular multi-ligand binding protein p32/gC1qR (from UniProt Q07021 74-282)
binding [7]: binds
binding [8]: binds
binding [1]: binds
binding [4]: binds
binding [6]: binds
